From PubChem BioAssay AID488969 (Vanderbilt High Throughput Screening Facility, 2010) come the findings set out here.

The structures appear in SMILES notation. Values joined by “and” are separate entries in the source; they are usually repeats but may differ in a detail not shown here. Identical values can stand only once. In all, about 110,000 compounds were measured (“z-score”: median about -0.1, highest 2% from about 2 on). The list shows a part of the results.

In this test the target is Metabotropic glutamate receptor 8 (Rattus norvegicus) (UniProt P70579). The experiment in a line: mGluR8 Gi/Go-coupled signaling modulation – cell-based, rat, thallium flux, HTS, primary screen (AID 488969). Particulars: HEK293 rat mGluR8, GIRK (G protein-gated inwardly rectifying potassium channel) thallium flux, FluoZin2; at 10 µM; stronger effect = higher value; submaximal glutamate (EC20) added with thallium.
Sequence of UniProt P70579 (P70579 whole entry, looked up): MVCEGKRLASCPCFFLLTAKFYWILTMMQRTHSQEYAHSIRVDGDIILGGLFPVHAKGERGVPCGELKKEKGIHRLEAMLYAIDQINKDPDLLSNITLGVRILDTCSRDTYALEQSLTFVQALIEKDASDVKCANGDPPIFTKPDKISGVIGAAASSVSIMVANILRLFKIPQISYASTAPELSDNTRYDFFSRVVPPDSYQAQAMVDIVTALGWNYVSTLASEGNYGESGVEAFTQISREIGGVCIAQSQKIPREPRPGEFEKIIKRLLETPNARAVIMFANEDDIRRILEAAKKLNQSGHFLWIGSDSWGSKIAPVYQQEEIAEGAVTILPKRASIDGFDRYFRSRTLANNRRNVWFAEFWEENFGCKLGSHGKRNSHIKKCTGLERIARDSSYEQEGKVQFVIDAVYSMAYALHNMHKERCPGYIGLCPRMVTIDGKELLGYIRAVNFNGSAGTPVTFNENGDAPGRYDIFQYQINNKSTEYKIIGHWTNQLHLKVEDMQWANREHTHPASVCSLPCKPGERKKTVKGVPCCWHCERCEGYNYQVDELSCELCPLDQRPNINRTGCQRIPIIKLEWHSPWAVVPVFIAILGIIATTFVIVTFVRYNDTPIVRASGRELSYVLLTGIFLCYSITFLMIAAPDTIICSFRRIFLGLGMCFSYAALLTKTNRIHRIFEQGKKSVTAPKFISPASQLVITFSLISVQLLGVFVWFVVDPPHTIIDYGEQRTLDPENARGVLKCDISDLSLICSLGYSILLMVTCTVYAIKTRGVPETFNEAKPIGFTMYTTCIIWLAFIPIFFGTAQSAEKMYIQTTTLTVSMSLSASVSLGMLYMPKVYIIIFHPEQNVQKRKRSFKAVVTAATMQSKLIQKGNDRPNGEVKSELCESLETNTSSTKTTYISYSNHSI
Consider `Cn1c(=O)c2c(nc(NCCCN3CCOCC3)n2Cc2ccc(Cl)c(Cl)c2)n(C)c1=O`, for which the z-score was -0.164.
With `Cc1onc(-c2ccccc2)c1C(=O)NC(=S)NNC(=O)c1ccccc1O` the figure was -0.543; with `Cc1nc(NC(=O)c2ccccc2)sc1-c1csc(Nc2ccc(F)cc2)n1`, -0.0195; with `O=C(O)Cn1c(O)c(C=Nc2ccccc2)sc1=S`, -0.223 and 0.51.
With `CC(C)NC(=O)c1onc(CSc2cccc3ccccc23)c1C(=O)O` the figure was -0.135; with `COc1ccc(/C=N/N2CCN(c3ccncc3S(=O)(=O)N3CCCCC3)CC2)cc1`, -0.0781.
On to `COc1ccccc1-c1nc(SCC(=O)O)n[nH]1`, for which the z-score came out at 0.65.
With `CC1CCc2nc3ccc(S(=O)(=O)N4CCC(C(=O)NC5CCCC5)CC4)cc3c(C(=O)O)c2C1` (centres undefined) the figure was -0.566; with `O=C(NCCCN1CCOCC1)c1ccc2c(=O)n(CCc3ccccc3)c(=O)[nH]c2c1`, 1.15.
Molecule `CCN(CC)c1ccc(C=C(c2nnnn2-c2ccc(C)cc2)c2nnnn2-c2ccc(C)cc2)cc1` registered a z-score of -0.132.
With `CCC(=O)c1ccc(OCC(O)CNC(C)c2ccccc2)cc1` (centres undefined) the figure was 0.0194; with `Cc1cc(-c2cccnc2)c(C#N)c(SCc2cccc(F)c2)n1`, -0.155; with `CC(=O)N1CCC(N(C(=O)Nc2ccc(F)cc2)C2CCCC2)CC1`, 0.292.
With `COc1ccc(CCNC(=O)Cn2c(=O)oc3ccccc32)cc1OC` the figure was 0.281; with `CCOC(=O)CSc1ccc(-c2nc3cc(C)c(C)cc3[nH]2)cn1`, 0.298.
With `Cn1c(SCc2ccc(C#N)cc2Cl)nc2ccccc21` the figure was -0.224.
In turn, `CCCCC(CCCC)=N/N=C/c1c(O)n(CC)c2cc(C3=NNC(=O)CC3)ccc12` had a z-score of -0.351.
With `CCOC(=O)Cc1csc(NC(=O)CSc2nnc(-c3ccc(NS(=O)(=O)CC)cc3)o2)n1` the figure was -0.095; with `Cn1c(SCC(=O)Nc2ccccc2)nnc1-c1ccc(NC(=O)CCc2ccccc2)cc1`, -0.164; with `C=CCc1ccc(OCc2ccc(C(=O)OC)o2)c(OC)c1`, -0.0312.
For `C=CCN(C(=O)Nc1ccccc1)C1CC(=O)N(c2ccc(OC)cc2)C1=O` (centres undefined), the z-score was -0.258.
On to `Cc1cc(F)c(F)c(C(=O)N2CCOCC2)c1`, for which the z-score came out at 0.431.
With `Cc1ccc(S(=O)(=O)Nc2ccc(SC(F)F)cc2)c(C)c1` the figure was 0.288; with `CCOC(=O)C1CCN(C(=O)COC(=O)CCOc2ccc(C)cc2)CC1`, -0.15; with `Cc1nc2nc(-c3ccc(Cl)cc3)nn2c(C)c1Cl`, 0.322.
With `O=C(Nc1nc2ccc(F)cc2s1)C1=NN(c2ccccc2)C(=O)CC1` the figure was 0.185; with `CC(C)(C)NC(=O)NC(=O)COc1ccccc1C#N`, 0.934.
With `Cc1ccc(CSc2ncnc3c2cnn3Cc2ccccc2)cc1C` the figure was -0.239; with `CN(C(=O)Cn1c(=O)n(CCCCC(=O)NC2CCCC2)c(=O)c2ccccc21)C1CCCCC1`, -0.115.
